# Test results published in the supplement of paper PMC11417369.
# ± gives the standard deviation of the averaged measurements. The list shows a part of the results.
# System: PfAP2-LT AP2 domain (GST-tagged)
# Experiment: gcPBM binding intensity (ln(normalized median fluorescence intensity)); higher = stronger DNA binding
# Summary of the method: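 GST-tagged P. falciparum DNA-binding domains, expressed in E. coli (about 25 μg on average), were applied for 1 h to an Agilent 4 × 180k array of primer-extended double-stranded 36-bp intergenic genomic probes plus negative controls. The binding buffer was 1× PBS with 1% milk, 0.2 mg/ml BSA, 0.5% salmon testes DNA and 0.03% Triton X-100. Bound protein was detected with Alexa488 anti-GST antibody and scanned at 488 nm. Binding intensity is the highest Masliner-normalised natural-log median intensity across replicate spots of either probe orientation.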
row,Sequence,gcPBM binding intensity (ln)
1,AGAAAAATCTAAATTCGTACATAACGTTTAAACATA [XGTACX_site2511],8.51 ± 0.42
2,AGGATATAAAGTTGTGCATGTCAAGTGCACCGTATT [TGCATGCA_site451],8.99 ± 0.34
3,GATGTGTATATTAAATGTACGAACAGTTGAGGCGAA [XGTACX_site7853],9.13 ± 0.52
4,CAGCATGGTATACCTATAAAATATATATACTAACAT [TGCATGCA_negctrl_site51],8.83 ± 0.51
5,ATGTTACACAGACACACACACATAAAAAAACAAAAA [CACACA_site7516],9.6 ± 0.42
6,TTTTTAAAAAATAAGAAAAAATAAATATATTACAAA [XGTACX_negctrl_site191],8.2 ± 0.42
7,GGCATATATACATATGGTACACATTTATTAATACCG [XGTACX_site2710],9.04 ± 0.31
8,CACATACATATATATACACACAAATATATATACGCA [CACACA_site791],9.2 ± 0.35
9,AGAACATGCAAACATGCACACAGAAAAAAAAAATAT [CACACA_site8442],9.31 ± 0.42
10,GTTTTATTCCATTATTGTACTTAATATAAAGAAACT [XGTACX_site3054],8.61 ± 0.41
11,ATAAATTGAAGTAAATTTGACCTTTTTTTTTTTTTT [GTGCAC_negctrl_site354],8.38 ± 0.43
12,ATAATAATATGTGGGTGTACATATACACATATATAT [XGTACX_site4356],9.21 ± 0.4
13,AAAAAATATAATAATTGTACACATGCACACACAAAT [XGTACX_site1563],9.53 ± 0.42
14,TTTCATATCTTGTCAAGTACATATTTTTATTTTCTT [XGTACX_site2160],8.82 ± 0.44
15,ACTTAATATCGGTACACACACAAGATAAGAATTATG [CACACA_site894],9.37 ± 0.39
16,AGAGGAGTAAAACAAAACAAAGAGAAATAAACACAC [XGTACX_negctrl_site386],9.31 ± 0.33
17,AATTAATAAATATTATATGTTAATATTTTTTTTGTT [CACACA_negctrl_site1692],8.42 ± 0.54
18,ATACTAAAAATGAATGTACACATATATATATATATA [TGCATGCA_negctrl_site209],9.86 ± 0.38
19,ATATATCTTTATATAGTGCATTAAATATGTTGTAAT [GTGCAC_site9953],8.62 ± 0.44

row,Sequence,gcPBM binding intensity (ln)
1,TATAATAAAATATTTTGTACGTATATTTTAATATTT [XGTACX_site2582],8.59 ± 0.38
2,AAAAAAAATAAAAATAGTACCCAAAAAATTATGAAT [XGTACX_site6641],8.76 ± 0.46
3,TTTTTATAAAAATGAACACACACATATATATATATA [CACACA_site9160],9.325 ± 0.05
4,AATAACACTATTTAACGTACAAAAAAAAAAAAGAAA [XGTACX_site3721],8.7 ± 0.58
5,ACAAAAAAAAAAAAAAAAAGAAGAATATATCTATAT [CACACA_negctrl_site759],8.38 ± 0.57
6,TATCATACAATATTCACACAAATAAATTGACATATT [CACACA_site5891],8.75 ± 0.37
7,CACAGACACGGACACACACACACAAAAAAAAAAAGA [CACACA_site4436],10.1 ± 0.55
8,TATTAAAAAAATATTTGTACTTAAAATTTATTATAT [XGTACX_site1467],8.29 ± 0.59
9,TATTTTCTTTAATTAATTATTGGTCTGAATGGGGTT [CACACA_negctrl_site418],8.78 ± 0.36
10,AAAAAGGAAATAATAACACACATTAGTAATTATAAA [CACACA_site7573],8.89 ± 0.45
11,AATACTTTTTTCTGTACACACTTGATTTACTATAAT [CACACA_site5544],9.01 ± 0.45
12,TTCATATTCGATAAAGTGCATTAATTTTATTTATCA,8.4 ± 0.42
13,TCCAATTGTTCTAGTGTGCACATAAATAAATCTCAT,9.07 ± 0.4
14,TATTACATACATATCTGTACATATATTAATGCACAA [XGTACX_site3315],8.72 ± 0.44
15,TATTAATGCAAATGTTATATGTGCATACATAAATGT [CACACA_negctrl_site790],8.73 ± 0.42
16,AAAAATATTAAAAAAGGTACACAGCATATCTCTTTT [XGTACX_site65],8.79 ± 0.43
17,AAGAGTTAAAAAAATACACACATATAGATTTTTTTA [CACACA_site7018],8.83 ± 0.41
18,ATAAATAAAAAAGAAAGAAAGAAAGAAACAAACAAA [CACACA_negctrl_site1198],8.73 ± 0.52
19,AGCACATTATTCAAAAGTACAAATAGGTATTGTATA [XGTACX_site6107],8.81 ± 0.45

row,Sequence,gcPBM binding intensity (ln)
1,TTTTTTTCTTTTTACATACACACAAAAAAATAAAAT [CACACA_site580],8.52 ± 0.38
2,AATATAAAAAAAAAAAAAAAAAAAAAAAAAAAGACA [CACACA_negctrl_site983],8.66 ± 0.5
3,TTGTTAATATGATAAAAGAGGAATATTCTCTTCCTA [GTGCAC_negctrl_site659],8.26 ± 0.37
4,TAAAAAAAAACTCATGCACACAATATTATGAAAAAG [CACACA_site665],9.02 ± 0.45
5,TTATTTACAACTTCAAATTATGTGTAATACTACTAT [CACACA_negctrl_site741],8.73 ± 0.52
6,AAATATTATGTACGCACACACATTTTTAATATATAA [CACACA_site3851],9.19 ± 0.3
7,AAATTAATGTATATGTGAAGCAAGGGATGCGGCAGA [CACACA_negctrl_site406],9.12 ± 0.33
8,ATATATATATATATATAATATATAATATATATATAT [CACACA_negctrl_site96],9.01 ± 0.11
9,CAATTATTGTAATGCATGCACTGAATATAAAAAGAA,9.02 ± 0.34
10,TTTATATGTATTAAGTGTACACATATAATGTATTTT [XGTACX_site16],8.83 ± 0.4
11,AACAAATAAAGCTATGACATGTTAAAATTGTTTCAC [XGTACX_negctrl_site67],8.85 ± 0.45
12,ATATCTAAATATATTACACACAGATATCTTCCTATA [CACACA_site3701],9.09 ± 0.38
13,AGAGAAAAATATTTGGACAAAAATAATATAATATAT [CACACA_negctrl_site656],8.7 ± 0.48
14,ATAAAGGAATTTTATACACACAACATATAAATATAT [CACACA_site7365],9.02 ± 0.4
15,ATTCGTATGAGCATAACACACAATATCGATATTTCT [CACACA_site4165],9.06 ± 0.41
16,TCTTTTCAATTATCCTATATTCTTTTATTTTTAATT [GTGCAC_negctrl_site326],8.69 ± 0.52
17,CATACACCCATACATACACACATACATACACCCATA [CACACA_site5124],9.56 ± 0.31
18,ATAAAACAACAAAGAAAATGAAAAAGTAAAAACATA [CACACA_negctrl_site596],8.88 ± 0.46
